The values below come from patent publication US20200399238A1, “THERAPEUTIC AURONES” (MIDDLE TENNESSEE STATE UNIVERSITY, priority 2016, published 2020).

For the data set, the system named is RAW 264.7 cells. As to the kind of experiment: Alamar Blue cell viability assay, RAW 264.7. The data set is classed as cell-based, murine. How it is done:
THP-1 cells were maintained in RPMI 1640 medium supplemented with 10% heat-inactivated FBS and 1% penicillin/streptomycin (complete culture medium) at 37° C. with 5% CO2 supplemented. Cell concentrations were adjusted to desired concentrations for each experiment by centrifugation at 500×g for 5 min and resuspended in complete culture medium with 100 nM of PMA. Cell concentration was adjusted to 5×10^5 cells/ml for all assays with the exception of 2.5×10^5 cells/ml were used for NF-κB nuclear translocation assay. Cells were seeded onto 96-, 24-, or 12-well plates and incubated for 48 to 72 h to allow for differentiation. Cells were washed with serum-free RPMI 1640 medium before each experiment to remove undifferentiated cells. […] Cells were seeded into tissue culture plates at 10% confluence and grown to 80% confluence within 72 h. For live cell microscopy, 1×10^5 cells/ml were seeded into 35 mm glass-bottom (MatTek) dishes 24 h prior to imaging. […]
Following treatment, the relative cell viability was measured by Alamar Blue assay. […] Cell viability was assessed by measuring relative fluorescent units (RFU) on the SpectraMax M2e microplate reader (Molecular Devices Inc., Sunnyvale, Calif., USA) at Ex 560 nm and Em 590 nm. The results were expressed as a percentage relative to LPS alone control cells. The effects of the vehicle control, DMSO, on cell viability were also assessed.

Structures are written as SMILES.

As to `O=C1/C(=C/c2ccc(CO)o2)Oc2ccccc21` [aurone 1], the “RAW 264.7 cell viability (Alamar Blue)” value was “without apparent toxicity” (100 μM, at least 24 h); “no effect on viability” (up to and including 100 μM with LPS, 4 h post treatment).
